This note sets out measurements from the supplement of paper PMC11060735.

“And” between values parts separate entries of the source, which are not always exact repeats. Equal entries are not always repeated. Structures can show the parent of a compound that is named as a salt. Hit rate of the full screen: of about 1,800 compounds, about 50 (3%) showed activity. This is one part of the list.
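Further: fibroblasts sorted 14 days after bleomycin, GFP+ and GFP− mixed 1:1 in 384-well plates (GFP− as in-well control), imaged after Hoechst and NucView530 staining, reference wells lacked compound.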

For this experiment, the system named is mouse p16Ink4a+/- lung fibroblasts (INKBRITE, bleomycin-injured). The experiment in a line: percentage of GFP+ (p16Ink4a+) fibroblasts among all cells in well; higher = less depletion of p16Ink4a+ cells, active = 20 or less. Conditions: 1 µM; 3 days.
`O=C(O)Cc1ccccc1Nc1c(Cl)cccc1Cl` [Diclofenac]: the “percentage of GFP+” value is inactive: 44% and inactive: 47% and inactive: 40.1%. Then `N#Cc1ccc(C(c2ccc(C#N)cc2)n2cncn2)cc1` [Letrozole], with inactive: 26.3%.

In the case of `CNC(=O)c1cc(Oc2ccc(NC(=O)Nc3ccc(Cl)c(C(F)(F)F)c3)c(F)c2)ccn1` [Regorafenib], the “percentage of GFP+” value is inactive: 32.6%. In the case of `CCc1ccc(CCOc2ccc(CC3SC(=O)NC3=O)cc2)nc1` (stereo unspecified) [Pioglitazone], the “percentage of GFP+” value is inactive: 36.4% and inactive: 38%. Then `NS(=O)(=O)c1cc(Cl)c(Cl)c(S(N)(=O)=O)c1` [Diclofenamide], with inactive: 45.6%. For `CC(C)CN(C[C@@H](O)[C@H](Cc1ccccc1)NC(=O)O[C@H]1CO[C@H]2OCC[C@H]21)S(=O)(=O)c1ccc(N)cc1` [Darunavir], the “percentage of GFP+” value was inactive: 45.7%. With `Cc1ccc(NC(=O)c2ccc(CN3CCN(C)CC3)cc2)cc1Nc1nccc(-c2cccnc2)n1` [Imatinib, Imatinib Mesylate], the “percentage of GFP+” value was inactive: 32.5% and inactive: 39%.

`Nc1ccn([C@H]2CC[C@@H](CO)O2)c(=O)n1` [Zalcitabine]: the “percentage of GFP+” value was inactive: 43.3%. On to `C[C@H]1[C@H](C)C[C@@H](C(=O)O)C2CC[C@]3(C)C(=CC[C@@H]4[C@@]5(C)CC[C@H](O)C(C)(C)[C@@H]5CC[C@]43C)[C@@H]21` (stereo partly specified) [Ursolic Acid], for which the “percentage of GFP+” value is inactive: 36%. As to `CN(C)CCOc1ccc(-c2nc(-c3ccc4c(c3)CC/C4=N\O)c(-c3ccncc3)[nH]2)cc1`, the “percentage of GFP+” value is inactive: 33%. For `CN(C)[C@@H](CCOc1cccc2ccccc12)c1ccccc1` [Dapoxetine] the value was inactive: 42.1%; for `CCCSc1ccc2[nH]c(NC(=O)OC)nc2c1` [Albendazole], inactive: 39.7%; for `C[C@]12CC[C@@H]3c4ccc(O)cc4CC[C@H]3[C@@H]1C[C@@H](O)[C@@H]2O` [Estriol], inactive: 49.2%. `C=C1/C(=C/C=C2/CCC[C@]3(C)[C@@H]([C@H](C)CCCC(C)C)CC[C@@H]23)C[C@@H](O)C[C@@H]1O` [Alfacalcidol]: the “percentage of GFP+” value is inactive: 25.5%. Then `COc1cc(-c2cc3ccccc3[nH]2)[nH]c1/C=C1\N=C(C)C=C1C` [Obatoclax Mesylate], with inactive: 73.2%; and `Nc1ccc(O)c(C(=O)O)c1` [Mesalazine], with inactive: 38.5%. Take `O=c1ncccn1[C@@H]1O[C@H](CO)[C@H](O)C1O` (stereo partly specified) [Zebularine]: the “percentage of GFP+” value is inactive: 40.4%. For `C[C@@H](O[C@H]1OCCN(Cc2nc(O)n(P(=O)(O)O)n2)[C@H]1c1ccc(F)cc1)c1cc(C(F)(F)F)cc(C(F)(F)F)c1` [Fosaprepitant], the “percentage of GFP+” value was inactive: 50.2%. `Cc1cc2c(F)c(Oc3ncnn4cc(OC[C@@H](C)OC(=O)[C@H](C)N)c(C)c34)ccc2[nH]1` [Brivanib Alaninate]: the “percentage of GFP+” value is inactive: 35.2%. Then `CC(C)(Oc1ccc(CCNC(=O)c2ccc(Cl)cc2)cc1)C(=O)O` [Bezafibrate], with inactive: 39.1%. With `CN(Cc1cnc2nc(N)nc(N)c2n1)c1ccc(C(=O)N[C@@H](CCC(=O)O)C(=O)O)cc1` [Methotrexate], the “percentage of GFP+” value is inactive: 38.4%. Regarding `O=C(NNc1nc2cc(F)ccc2n2cccc12)c1cnccn1`, the “percentage of GFP+” value is inactive: 30.3%. Then `CC/C(=C(\c1ccccc1)c1ccc(OCCN(C)C)cc1)c1ccccc1` [Tamoxifen], with inactive: 34.9%; and `CC(C)NC[C@H](O)COc1ccc(CCOCC2CC2)cc1` [Levobetaxolol], with inactive: 48%. `COC(=O)N1CCN(Cc2cccc(NC(=O)Nc3ccc(C)nc3)c2F)CC1` [Omecamtiv mecarbil]: the “percentage of GFP+” value is inactive: 45.9%.

In the case of `O=C(O)CCCCC(CCSCc1ccccc1)SCc1ccccc1` (stereo unspecified), the “percentage of GFP+” value is inactive: 44.3%. Consider `CN(C)C/C=C/C(=O)Nc1cc2c(Nc3ccc(F)c(Cl)c3)ncnc2cc1O[C@H]1CCOC1` [Afatinib], for which the “percentage of GFP+” value is inactive: 43.9%. For the compound `CCCc1nc(C(C)(C)O)c(C(=O)OCc2oc(=O)oc2C)n1Cc1ccc(-c2ccccc2-c2nn[nH]n2)cc1` [Olmesartan Medoxomil], the “percentage of GFP+” value is inactive: 38.2%. Turning to `CCCC(C)NC(=O)c1ccc(Cl)c(Cl)c1` (stereo unspecified), the “percentage of GFP+” value is inactive: 45.8%.

On to `C[C@@H]1C(=O)O[C@H]2[C@@H](O)C34[C@H]5C[C@@H](C(C)(C)C)C36[C@@H](OC(=O)[C@@H]6O)O[C@@]4(C(=O)O5)[C@@]12O` (stereo partly specified) [Ginkgolide B], for which the “percentage of GFP+” value was inactive: 48.5%. For `CN1CCC(NC(=O)c2cc(-c3c(O)cc(O)cc3Oc3ccc([N+](=O)[O-])cc3)on2)CC1`, the “percentage of GFP+” value is inactive: 35.6%. Then `Cc1ccc(C(=O)Nc2ccc(CN3CCN(C)CC3)c(C(F)(F)F)c2)cc1C#Cc1cnc2[nH]ncc2c1` [Olverembatinib], with active: 17.2%; and `OC[C@@H](O)[C@@H](O)CO` [_x000D_  Meso-Erythritol], with inactive: 54.8%.

With `Cc1cc(NC(=O)Nc2ccc(N(C)C)cc2)c2cc(F)cc(F)c2n1`, the “percentage of GFP+” value was inactive: 37.4%. Turning to `CCC(=O)O[C@]1(C(=O)SCF)[C@H](C)C[C@H]2[C@@H]3C[C@H](F)C4=CC(=O)C=C[C@]4(C)[C@@]3(F)[C@@H](O)C[C@@]21C` [Fluticasone propionate], the “percentage of GFP+” value is inactive: 38.7%. For `CCOC(=O)c1ccc(N2NC(=O)/C(=C/c3ccc([N+](=O)[O-])o3)C2=O)cc1` the value was inactive: 45.9%; for `O=C(/C=C/c1ccc(O)c(O)c1)O[C@@H]1C[C@](O)(C(=O)O)C[C@@H](O)[C@H]1O` [Chlorogenic Acid], inactive: 36.6%; for `CC[C@H]1OC(=O)[C@H](C)[C@@H](O[C@H]2C[C@@](C)(OC)[C@@H](O)[C@H](C)O2)[C@H](C)[C@@H](O[C@@H]2O[C@H](C)C[C@H](N(C)C)[C@H]2O)[C@](C)(O)C[C@@H](C)/C(=N/OCOCCOC)[C@H](C)[C@@H](O)[C@]1(C)O` [Roxithromycin], inactive: 41.7%. For `CN1C[C@@H]2c3ccccc3Oc3ccc(Cl)cc3[C@H]2C1` [Asenapine], the “percentage of GFP+” value was inactive: 49.5%. `O=C1C(O)=C([C@H]2CC[C@H](c3ccc(Cl)cc3)CC2)C(=O)c2ccccc21` [Atovaquone]: the “percentage of GFP+” value was inactive: 47.1%. `COc1ccccc1OCC(O)CN1CCN(CC(=O)Nc2c(C)cccc2C)CC1` (stereo unspecified) [Ranolazine, Ranolazine Dihydrochloride]: the “percentage of GFP+” value is inactive: 42.9% and inactive: 39.3%. For the compound `NC(=O)Nc1sc(-c2ccc(F)cc2)cc1C(N)=O`, the “percentage of GFP+” value is inactive: 39.7%. For the compound `O=c1[nH]c(=O)n([C@H]2C[C@H](O)[C@@H](CO)O2)cc1I` [Idoxuridine], the “percentage of GFP+” value was inactive: 41.9%.

For `O=C(NC1CCOCC1)c1ccc(-c2cc(-c3c[nH]nc3-c3ccccn3)ccn2)cc1`, the “percentage of GFP+” value is inactive: 40.4%. For the compound `CNCC[C@H](Oc1cccc2ccccc12)c1cccs1` [Duloxetine], the “percentage of GFP+” value is inactive: 33.8%. Turning to `CC(=O)c1cc([N+](=O)[O-])c(Sc2ccc(F)cc2F)s1`, the “percentage of GFP+” value was inactive: 34.9%. `CCOC(=O)CCNc1cc(N2CCc3ccccc3CC2)nc(-c2ccccn2)n1`: the “percentage of GFP+” value was inactive: 47.7%. As for `COCCO/C(O)=C1\C(C)=NC(C)=C(C(=O)OC(C)C)C1c1cccc([N+](=O)[O-])c1` (stereo unspecified) [Nimodipine], the “percentage of GFP+” value is inactive: 42.9%.

For `O=C1c2cccc(O)c2C(=O)c2c(O)cc(CO)cc21` [Aloe-emodin], the “percentage of GFP+” value was inactive: 38%. Regarding `CC(C)C[C@H](NC(=O)CNC(=O)c1cc(Cl)ccc1Cl)B(O)O` [Ixazomib], the “percentage of GFP+” value was active: 4.65%.

For the compound `OC(CCN1CCCCC1)(c1ccccc1)C1CC2C=CC1C2` (stereo unspecified) [Biperiden], the “percentage of GFP+” value was inactive: 40.6%. Regarding `CC1(C)S[C@H]2[C@@H](NC(=O)[C@@H](NC(=O)N3CCN(S(C)(=O)=O)C3=O)c3ccccc3)C(=O)N2[C@@H]1C(=O)O` [Mezlocillin Sodium], the “percentage of GFP+” value was inactive: 47%.

With `CNC[C@H](O)c1cccc(O)c1` [Phenylephrine], the “percentage of GFP+” value is inactive: 35.5%. `COc1ccc2cc(CCC(C)=O)ccc2c1` [Nabumetone]: the “percentage of GFP+” value is inactive: 45.4%. Turning to `CN1CCC[C@@H]1Cc1c[nH]c2ccc(CCS(=O)(=O)c3ccccc3)cc12` [Eletriptan], the “percentage of GFP+” value is inactive: 52.5%. For `O=c1[nH]c(=O)n([C@H]2C[C@H](O)[C@@H](CO)O2)cc1F` [Floxuridine], the “percentage of GFP+” value is inactive: 36.8%. For `O=C(NNc1ccccc1)c1ccncc1` [PluriSIn #1] the value was inactive: 54.6%. For `COc1cc2ncnc(Nc3ccc(Cl)cc3F)c2cc1OC`, the “percentage of GFP+” value was inactive: 51.5%.

As to `O=C(NCc1ccccc1)c1csc(Nc2ccncn2)n1` [Thiazovivin], the “percentage of GFP+” value is inactive: 51.8%.

As to `CN/C(=C/[N+](=O)[O-])NCCSCc1csc(CN(C)C)n1` [Nizatidine], the “percentage of GFP+” value was inactive: 41.5%.

Turning to `CCN1CCCC1CNC(=O)c1cc(S(=O)(=O)CC)c(N)cc1OC` (stereo unspecified) [Amisulpride], the “percentage of GFP+” value is inactive: 45.9%. On to `Nc1nc(F)nc2c1ncn2[C@@H]1O[C@H](COP(=O)(O)O)[C@@H](O)[C@@H]1O` [Fludarabine Phosphate], for which the “percentage of GFP+” value is inactive: 36.6%.

In the case of `COc1cc(C=O)ccc1O` [Vanillin], the “percentage of GFP+” value is inactive: 37.7%.

On to `CN1CCN(C2CCN(C(=O)Nc3cc(Oc4ccc(NC(=O)C5(C(=O)Nc6ccc(F)cc6)CC5)c(F)c4)ccn3)CC2)CC1` [Golvatinib], for which the “percentage of GFP+” value is inactive: 39.3%. With `C[C@@H]1O[C@@H](OC[C@H]2O[C@@H](Oc3c(-c4ccc(OCCO)c(OCCO)c4)oc4cc(OCCO)cc(O)c4c3=O)[C@H](O)[C@@H](O)[C@@H]2O)[C@H](O)[C@H](O)[C@H]1O` [Troxerutin], the “percentage of GFP+” value was inactive: 40.2%. With `C[C@@H](NCCCc1cccc(C(F)(F)F)c1)c1cccc2ccccc12` [Cinacalcet], the “percentage of GFP+” value was inactive: 33.2%.
